In all, about 140,000 compounds went through this assay and about 240 (0.17%) were called active. Inconclusive means that the source gave no clear call. Such entries were picked first, then a sample of the others. The call rests on the fitted dose curve; in most records, active means well fitted inhibition curve with a large enough effect; inconclusive means small, poorly fitted or top-dose-only effect; inactive means no such curve, though single readings can be large or run the other way. Potencies of inconclusive entries are doubtful fits and often do not repeat.
Assay: Primary qHTS assay for inhibitors of alpha-synuclein gene (SNCA) expression; further: nearly all actives have a fitted effect of over 45% in size;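 on activity change, negative = inhibition: plate controls were DMSO cells for no effect and cell-free wells for full effect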
Details: HEK-293 SNCA-luciferase knock-in, luminescence, 24 h; activity change, negative = inhibition: at 57.2 µM (top of the series) unless noted
Potency means the concentration at half of the fitted maximal effect; tags describe the fitted curve by direction and shape.

| SMILES | Potency | activity change, negative = inhibition |
| --- | --- | --- |
| O=S(=O)(NC1CCc2nnc(C3CC3)n2CC1)c1cccs1 (stereo not given) | inconclusive: 39.8 µM [inhibitor, single point] | – |
| O=C(c1cccc2[nH]ccc12)N1CC[C@@H]2COCCN(Cc3ccncc3)[C@@H]2C1 | – | inactive: -16.3% |
| CCc1noc(-c2cccn3c(CNC(=O)c4ccc(F)cc4)nnc23)n1 | – | inactive: -22.5% |
| COc1ccccc1N1CCN(Cc2ccc(=O)n(C)c2)CC1 | inconclusive: 3.16 µM [inhibitor, partial curve, poor fit] | – |
| N#Cc1cccc(CN2CC[C@@H]3OCC(=O)N(Cc4ccccc4)[C@H]3CC2)c1 | – | inactive: -17.6% [at 87.6 µM] |
| O=C(O)CCCC[P+](c1ccccc1)(c1ccccc1)c1ccccc1 | – | inactive: -22.7% [at 25.6 µM] |
| CCOc1ccccc1CN1CCC2(CCN(C(=O)C(C)(C)C)CC2)Oc2ccccc21 | inconclusive: 39.8 µM [inhibitor, single point] | – |
| Cc1ccc(C(=O)c2cn(Cc3cccc(F)c3)c3nc(C)ccc3c2=O)cc1 | inconclusive: 35.5 µM [inhibitor, partial curve, poor fit] | – |
| COc1ccccc1-c1ccc(CN2CCCCC2C(=O)N2CCOCC2)cc1 (stereo not given) | – | inactive: -3.85% |
| CC(=O)N1CC2(CCCN2Cc2ccc(Cl)cc2)Cc2ccccc21 (stereo not given) | inconclusive: 12.6 µM [inhibitor, single point] | – |
| O=C(N1CCC(Cc2noc(-c3ccc(F)cc3)n2)C1)C1(c2ccccc2)CC1 (stereo not given) | – | inactive: -8.54% |
| Cc1ccc(C(=O)N2CCCC(C(=O)N3CCC(c4nc5ccncc5[nH]4)CC3)C2)cc1 (stereo not given) | – | inactive: -9.21% |
| Cc1nc(CCNC(=O)CCc2ccccc2)no1 | inconclusive: 8.91 µM [inhibitor, single point] | – |
| CN(C)C(=O)c1cc(-c2ccc(F)cc2)c2nncn2n1 | inconclusive: 12.6 µM [inhibitor, single point] | – |
| Cc1ccc(-c2cnc([C@@H]3COCCN3C(C)C)[nH]2)cc1 | – | inactive: 4.99% [at 87.6 µM] |
| COc1ccccc1Nc1ccnc(N2CCCC(C(=O)NC3CC3)C2)n1 (stereo not given) | – | inactive: -15.7% |
| Cc1ccc(-c2ccc3nnc(CNC(=O)c4ccccc4)n3n2)cc1C | inconclusive: 2.51 µM [inhibitor, full curve] | – |
| O=C(NCc1cccc(F)c1)c1ccc2c(c1)CC(=O)N2Cc1ccccc1 | active: 12.6 µM | – |
| CCC1Oc2ccc(NC(=O)c3ccc4c(c3)OCO4)cc2CN(Cc2ccccc2)C1=O (stereo not given) | – | inactive: 6.83% |
| O=C(NC1CCCCC1)N1Cc2[nH]cnc2C[C@H]1c1nc(-c2ccc3c(c2)OCO3)no1 | inconclusive: 14.1 µM [inhibitor, single point] | – |
| COc1cc(-c2nc3cccc(C)n3c2Nc2ccc3c(c2)OCCO3)ccc1O | inconclusive: 39.8 µM [inhibitor, single point] | – |
| Cn1nc(C2CC2)n(C2CCN(Cc3cn[nH]c3-c3ccccc3)CC2)c1=O | – | inactive: -0.743% |
| Cc1c(C(=O)NCc2ccc(F)cc2)sc2nc(-c3ccccc3)cn12 | inconclusive: 14.1 µM [inhibitor, single point] | – |
| COC(=O)c1c(-c2ccc(Cl)cc2)noc1N1CCN(c2cccc(OC)c2)CC1 | inconclusive: 1.58 µM [inhibitor, full curve, poor fit] | – |
| COc1ccc(S(=O)(=O)NCCS(=O)(=O)N2CCN(c3ccccc3F)CC2)cc1 | inconclusive: 1.58 µM [inhibitor, full curve, poor fit] | – |

| SMILES | Potency | activity change, negative = inhibition |
| --- | --- | --- |
| COc1nccc(-c2c(-c3ccc(F)cc3)ncn2C2CCC(O)CC2)n1 (stereo not given) | inconclusive: 30.4 µM [inhibitor, single point] | – |
| Cc1ccc(Cl)cc1NC(=O)c1cc(-c2ccc3c(c2)OCCO3)on1 | inconclusive: 7.08 µM [inhibitor, single point] | – |
| O=C(Cc1ccc(NC(=O)N2CCCCc3ccccc32)cc1)Nc1ccccc1Br | inconclusive: 12.6 µM [inhibitor, partial curve, poor fit] | – |
| Cc1ccc(-c2noc([C@@H]3Cc4nc[nH]c4CN3Cc3ccc(F)cc3)n2)cc1 | inconclusive: 3.16 µM [inhibitor, partial curve, poor fit] | – |
| CCc1cc(=O)n(CC(=O)Nc2ccc(C)c(F)c2)c(N2CCOCC2)n1 | – | inactive: -3.18% |
| O=C1CCN(C(=O)c2ccco2)CCCCCCN1 | – | inactive: -28.2% |
| C[C@@]1(O)CCN(C(=O)CCCS(N)(=O)=O)C[C@@H]1Cc1ccccc1 | inconclusive: 3.16 µM [inhibitor, full curve, poor fit] | – |
| CC(NCc1cn(CCC(N)=O)c2ccccc12)c1ccccc1-n1cccn1 (stereo not given) | inconclusive: 17.8 µM [inhibitor, single point] | – |
| COc1cccc(Cn2c(=O)n(CC3CCC(C(=O)N4CCOCC4)CC3)c(=O)c3sccc32)c1 (stereo not given) | inconclusive: 31.6 µM [inhibitor, single point] | – |
| CC(C)CNC(=O)C(C)(C)Oc1nn(CC2CC2)c2ccc(CN3CCCC3)cc12 | inconclusive: 15.8 µM [inhibitor, partial curve, poor fit] | – |
| Cc1ccc(NC(=O)Cn2c(=O)n(-c3ccc(F)cc3)c(=O)c3c2cc(C)n3C)c(C)c1 | inconclusive: 39.8 µM [inhibitor, single point] | – |
| COc1ncccc1Nc1cnc2ccc(N(C)Cc3ccc(F)cc3)nn12 | inconclusive: 28.2 µM [inhibitor, partial curve, poor fit] | – |
| CCOC(=O)C1CCN(C(=O)c2ccc3nc(-c4ccncc4)oc3c2)CC1 | – | inactive: 16% |
| O=C(NCc1cccs1)C1CCCN(Cc2cccc(-c3ccc(F)cc3F)c2)C1 (stereo not given) | inconclusive: 39.8 µM [inhibitor, single point] | – |
| O=C(c1ccccc1Cl)N1CCCN(c2cc(-c3ccc(F)cc3)[nH]n2)CC1 | – | inactive: -1.66% |
| COc1ccccc1-c1cc(-c2ccccc2OC)c2onc(C)c2n1 | – | inactive: 11.2% [at 87.6 µM] |
| COCCCNC(=O)C1CCN(C(=O)c2cc3sccc3n2Cc2ccc(Cl)cc2)CC1 | inconclusive: 11.2 µM [inhibitor, single point] | – |
| O=C(Nc1ccc(OC(F)(F)F)cc1)C(NS(=O)(=O)c1cccc2nsnc12)c1ccccc1 (stereo not given) | inconclusive: 39.8 µM [inhibitor, single point] | – |
| O=C(O)CCCn1cc(NC(=O)COc2ccccc2F)cn1 | inconclusive: 7.08 µM [inhibitor, single point] | – |
| CN(Cc1cccnc1)c1nc2c(c(=O)[nH]1)CCN(Cc1cc(F)ccc1F)CC2 | inconclusive: 39.8 µM [inhibitor, single point] | – |
| COC(=O)[C@@H]1Cc2c([nH]c3ccccc23)[C@H]2C[C@@H](NCCN3CCOCC3)C[C@@H](c3ccc(F)cc3)N21 | inconclusive: 8.91 µM [inhibitor, full curve, poor fit] | – |
| COc1ccc(-c2cc3nc4c(c(=O)n3[nH]2)CN(C(=O)c2ccc(C)cc2)CC4)cc1 | inconclusive: 1.41 µM [inhibitor, full curve, poor fit] | – |
| CCCCNC(=O)Cc1csc2nc(C)c(-c3cc(C)n(-c4cc(Cl)ccc4C)n3)c(=O)n12 | – | inactive: 5.13% |
| O=C(c1ccc(C(F)(F)F)cc1)N1CCC2(CC1)C(=NC1CCCCC1)NC(=O)N2c1cccnc1 | – | inactive: 1.06% |
| CN(Cc1ccccc1C(F)(F)F)CC1CC1 | inconclusive: 14.1 µM [inhibitor, partial curve, poor fit] | – |

| SMILES | Potency | activity change, negative = inhibition |
| --- | --- | --- |
| CCn1cc2c3c(cccc31)CN(C(=O)c1ccc(OC)c(F)c1)CC2 | – | inactive: -0.857% |
| COc1ccc(CNC(=O)c2c(C)noc2-c2cccc(F)c2)cc1 | – | inactive: -4.25% |
| COC[C@H]1CCCN1[C@@H]1[C@H](O)[C@H](CO)O[C@@H]1CN(Cc1cccc(Cl)c1)Cc1cccc(Cl)c1 | inconclusive: 39.8 µM [inhibitor, single point] | – |
| COc1ccc(CNC2CN(C(=O)OC(C)(C)C)C2)cc1 | – | inactive: -12% |
| C=CCc1ccccc1OCCn1c(C2CC(=O)N(Cc3ccc(F)cc3)C2)nc2ccccc21 (stereo not given) | inconclusive: 31.6 µM [inhibitor, single point] | – |
| CC(Oc1ccccc1)C(=O)OCc1cc(=O)n2nc(C(C)C)sc2n1 (stereo not given) | – | inactive: 19.8% |
| COc1ccccc1C(=O)N1c2ccccc2C(C)(c2ccc(Cl)cc2)CC1(C)C (stereo not given) | inconclusive: 39.8 µM [inhibitor, single point] | – |
| O=C(CN1C(=O)CNC1=O)N[C@@H]1[C@@H](Cc2ccccc2)[C@H]2OCC[C@@H]12 | inconclusive: 7.08 µM [inhibitor, partial curve, poor fit] | – |
| O=C1NCCOCCN(C(=O)Nc2ccc3c(c2)OCCO3)[C@@H]2CCCC[C@H]12 | – | inactive: 72.8% |
| O=C(Nc1ccc(S(=O)(=O)N2CCCCC2c2cccnc2)cc1)c1ccc(F)cc1 (stereo not given) | inconclusive: 39.8 µM [inhibitor, single point] | – |
| CCC(=O)Nc1ccc(C2(C(=O)N3CCCC(C)C3)CCCCC2)cc1 (stereo not given) | inconclusive: 39.8 µM [inhibitor, single point] | – |
| COc1ccc(OC)c(CNC(=O)c2ccc3c(c2)N(C)C2CCCCN2C3=O)c1 (stereo not given) | – | inactive: 0.361% |
| COc1cccc(C(=O)Nc2nc3nc(C)c(C)c(=O)n3[nH]2)c1 | inconclusive: 7.08 µM [inhibitor, single point] | – |
| CN1CCc2c([nH]c3ccccc23)C12CCN(C(=O)Cc1cccnc1)CC2 | inconclusive: 39.8 µM [inhibitor, single point] | – |
| O=C(Nc1ccc(Cl)cc1)NC1CCN(C(=O)c2ccc(-c3cncnc3)cc2)CC1 | inconclusive: 5.62 µM [inhibitor, single point] | – |
| Cn1c2c(c3cc(F)ccc31)CN(C(=O)Nc1ccc(F)c(Cl)c1)CC2 | inconclusive: 14.1 µM [inhibitor, single point] | – |
| O=C(NCc1ccc(F)cc1)c1cnc2n1CCN(CCc1ccccc1)CC2 | inconclusive: 8.91 µM [inhibitor, full curve] | – |
| CCn1nccc1C(=O)N1CCC2(CC1)CC(N(Cc1ccccc1)C1CC1)CCO2 (stereo not given) | – | inactive: -6.92% |
| C[C@@]1(O)CCN(C(=O)c2cccc(-c3cccc(F)c3)c2)C[C@@H]1O | inconclusive: 15.8 µM [inhibitor, partial curve, poor fit] | – |
| CCc1ccccc1S(=O)(=O)N1CCC(n2cnnc2C(C)C)CC1 | inconclusive: 22.4 µM [inhibitor, partial curve, poor fit] | – |
| Cn1cc(-c2ccncc2)cc1C(=O)NC1CCN(Cc2ccccc2)CC1 | inconclusive: 12.6 µM [inhibitor, partial curve, poor fit] | – |
| CCCCn1c(=O)c(C(=O)N2CCN(C(=O)c3ccccc3)CC2)nc2cccnc21 | – | inactive: -2.39% |
| CC1CCC2(CC1)OCC(C(=O)NCc1ccccc1)N2C(=O)c1ccc(Cl)c(Cl)c1 (stereo not given) | inconclusive: 25.1 µM [inhibitor, single point] | – |
| O=C(C1CC1)N1CCCC1c1noc(COc2ccc(F)cc2)n1 (stereo not given) | inconclusive: 25.1 µM [inhibitor, single point] | – |
| CC1(C)C(N(O)C(=O)Nc2ccc(Cl)cc2)N(c2ccc(Cl)cc2)C(=O)N1CC(=O)NN=CC=Cc1ccc([N+](=O)[O-])o1 (stereo not given) | inconclusive: 21.5 µM [inhibitor, partial curve, poor fit] | – |
